According to the supplement of paper PMC5895741:

B1: MS2 coat protein; the commonest letter at each place (parent)
chain: MASNFTQFVLVDNGGTGDVTVAPSNFANGVAEWISSNSRSQAYKVTCSVRQSSAQNRKYTIKVEVPKVATQTVGGVELPVAAWRSYLNMELTIPIFATNSDCELIVKAMQGLLKDGNPIPSAIAANSGIY

Variants of: B1
Test: apparent fitness score (VLP assembly selection enrichment vs plasmid library) (log10 ratio); higher = better expression / assembly into well-formed VLPs
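Also: counts from Illumina MiSeq reads, cDNA of packaged RNA versus plasmid DNA taken before selection, each replicate independent from library construction onward, expression induced with 0.1% arabinose.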

Apparent fitness score (log10) of substitutions, site by site:
C102: M -1.17; N < -4; Y -1.3; L -0.831; Q < -4; I -0.897; P < -4; W -0.694; V -0.571; R -0.798; H -1.32; S -1.65; E -1.05; T < -4; F -1.13; D < -4; K -0.871; A -1.5; G -2.18
T98: F -1.52; G -0.656; A 0.46; D 1.02; P -0.568; M 0.671; L -1.6; W < -4; Q -0.838; I -1.61; V -1.06; Y -0.876; N 0.335; E 0.745; K -1.6; S 0.485; C 0.394; R -1.16; H -0.465
D101: V -0.859; N -1.04; L -1.5; E -0.698; S < -4; T < -4; K -0.698; H < -4; I -1.17; W -1.14; R -1.23; Y < -4; M < -4; F -0.752; P -0.568; A -0.869; G -1.47; C -0.784; Q -0.573
I93: S -0.728; E -1.72; L -1.17; F -0.883; G -1.2; A -1.52; W -0.946; D -0.936; N -0.66; R -1.12; M -0.698; Y < -4; V 0.457; H -0.626; Q < -4; C -1.04; K -1.11; T -0.096; P -0.721
E90: Y 0.359; F 0.751; Q 0.782; R 0.823; M 0.792; V 1.01; P -1.17; D 0.469; N 0.836; W 0.556; K 0.724; I 0.838; S 0.896; A 1.09; G 0.866; T 0.96; C 0.8; H 0.587; L 0.546
I95: P < -4; Y < -4; D -0.236; E -1.63; G -1.46; V 0.32; Q -0.991; M -0.522; H 0.379; W -0.849; R -1.93; K -0.634; F -0.572; T -0.825; N 0.21; L -1.54; A < -4; C -0.573; S < -4
S100: K 0.709; T 0.549; L 0.371; F -0.906; A 0.951; Q 0.446; V 0.241; D 1.1; R 0.358; E 0.896; C 0.615; I 0.00398; W -0.943; Y -0.0446; H 0.02; M 0.4; G 0.57; P 0.724; N 0.648
P94: C -1.5; G -1.31; D < -4; W -1.62; V -1.13; N -1.09; S -1.68; L -1.06; E -2.13; R -0.916; I -1.27; T -1.52; H < -4; K -0.354; Q -0.698; Y -0.999; F -1.05; M -1.24; A -0.655
E103: T 0.487; A 0.739; V 0.471; F 0.399; L 0.491; Q 0.535; K 0.109; M 0.648; G 0.679; W -0.568; H 0.909; R 0.315; D 0.271; I 0.537; Y 0.573; P < -4; N 0.481; C 0.784; S 0.97
F96: L -1.52; M -0.66; G -1.48; N < -4; Q < -4; V -0.862; K -1.47; A -0.753; R -1.52; I < -4; E -1.61; C -0.966; T < -4; H -0.728; Y 0.636; D < -4; W 0.611; S < -4; P < -4
M89: C -0.673; N -1.42; K -0.57; Q -0.775; W -0.629; E -0.941; R -1.08; F 0.276; L 0.7; S -0.929; H -0.515; V 0.652; T 0.0383; D -1.02; P -1.21; G -1.15; I 0.633; A -1.13; Y -0.683
N88: Q 0.233; C 0.803; I 0.818; Y 0.317; T 0.355; M 0.392; S 0.672; E -0.634; A 0.307; L 0.636; R 0.86; V 0.654; G 0.16; P -0.721; W 0.643; F -0.292; D 0.291; K 0.921
T92: N 0.369; I 0.664; D -0.11; K 1.01; C -1.41; L 0.253; Y 0.238; V 0.395; A 0.159; W 0.361; R 0.157; H 0.0362; M 0.368; S 0.596; E -1.12; F 0.475; P < -4; G -0.957; Q 0.52
A97: V -0.335; T -0.409; G -1.29; D -0.13; F -2.11; K -1.48; W -1.16; I -1.28; N < -4; L < -4; P -0.787; M < -4; H < -4; C -1.3; S -0.369; Q -0.72; E -0.383; R -1.01; Y -1.32
L104: G 0.33; R 0.693; H 0.482; N 0.286; Q 0.508; M 0.572; K 0.26; F -0.422; P -0.267; S 0.256; I 0.557; C 0.354; D -0.243; E -0.804; A -0.151
L91: R -1.93; V 0.175; Y -0.614; E -0.771; G -0.314; S -0.981; F -0.798; M < -4; H -0.641; P -1.11; C -0.572; Q -1.2; N < -4; K < -4; A -1.08; D -1.93; I 0.104; T -0.979; W -0.138
N99: I 0.716; K -1.12; W -1.21; L 0.617; P 0.466; Y -1.32; Q < -4; C 0.578; V -0.522; H -0.138; M 0.488; T -0.0898; G -0.651; R -0.826; A -0.564; S -0.554; E -0.798; F -0.71; D 0.058
L87: H < -4; N < -4; Y < -4; K -1.43; R -1.24; V -0.403; G -0.778; M -1.17; F -0.735; W 0.528; E -0.728; Q < -4; T 0.186; I < -4; P -1.3; S -0.746
